Test results published in the antibiotic and cytotoxicity screens of Wong et al. (2023).
This is one part of the list.

Tested on: HepG2
Experiment: cytotoxicity call (relative viability < 0.9)
Conditions: 10 µM

Structure (SMILES) | cytotoxicity call
C[C@@H]1CCCCO[C@H](CN(C)Cc2ccc3c(c2)OCO3)[C@H](C)CN([C@@H](C)CO)C(=O)c2cc(NC(=O)NC3CCCCC3)ccc2O1 | active
CO[C@H]1[C@@H](O)[C@H](n2ccc(N)nc2=O)O[C@@H]1CO | inactive
C=CC[C@@H](CC(=O)NCCO)C(=O)N[C@@H](COC(=O)[C@@H](CC=C)CC(=O)OC(C)(C)C)Cc1c[nH]c2ccccc12 | inactive
CCCNC(=O)C[C@@H]1CC[C@@H]2[C@H](COc3ccc(NC(=O)c4ccc5c(c4)OCO5)cc3C(=O)N2C)O1 | inactive
COCC#Cc1ccc2c(c1)O[C@H](CN(C)Cc1ccc(F)cc1)[C@H](C)CN([C@H](C)CO)S2(=O)=O | inactive
O=C(C[C@H]1CC[C@@H]2[C@H](COC[C@H](O)CN2S(=O)(=O)c2cccc(Cl)c2)O1)NCc1ccc2c(c1)OCO2 | inactive
C[C@@H]1CN([C@@H](C)CO)C(=O)c2cccc(NC(=O)c3cnccn3)c2O[C@@H]1CN(C)Cc1ccncc1 | inactive
Cn1cnc(S(=O)(=O)N2C[C@@H](O)COC[C@@H]3O[C@@H](CC(=O)NCc4cc(F)cc(F)c4)CC[C@H]32)c1 | inactive
C[C@@H]1CCCCO[C@@H](CN(C)C(=O)C2CCCCC2)[C@H](C)CN([C@@H](C)CO)C(=O)c2cc(NC(=O)Nc3ccc(C(F)(F)F)cc3)ccc2O1 | active
Cl.Cl.O=C(O)COCCN1CCN(C(c2ccccc2)c2ccc(Cl)cc2)CC1 (configuration not stated) | inactive
C[C@H]1CN([C@@H](C)CO)C(=O)c2cccc(NC(=O)C3CC3)c2O[C@H]1CN(C)S(=O)(=O)c1ccc(Cl)cc1 | inactive
CCOC(=O)c1c(C)cc(O)c(C=O)c1O | inactive
CN1C(=O)c2cc(NC(=O)Nc3cccc(C#N)c3)ccc2OC[C@H]2O[C@@H](CC(=O)Nc3ccc4c(c3)CCC4)CC[C@@H]21 | inactive
COCC#Cc1ccc2c(c1)O[C@@H](CN(C)C(=O)COC)[C@@H](C)CN([C@@H](C)CO)S2(=O)=O | inactive
COc1ccc(S(=O)(=O)Nc2ccc3c(c2)CC(=O)N([C@@H](C)CO)C[C@H](C)[C@@H](CN(C)CC2CC2)O3)cc1 | inactive
CCOc1ccc(C(=O)Nc2ccc(S(=O)(=O)N3CCCC[C@@H]3c3cccnc3)cc2)cc1OCC | inactive

Structure (SMILES) | cytotoxicity call
C[C@H](CO)N1C[C@H](C)[C@@H](CN(C)S(=O)(=O)c2cn(C)cn2)Oc2ccc(NC(=O)NC3CCCCC3)cc2CC1=O | inactive
N#C[C@H](c1ccccn1)N1CCOCC1 | inactive
C[C@@H]1CN([C@H](C)CO)C(=O)c2cc(NC(=O)Nc3ccccc3)ccc2O[C@@H]1CN(C)C(=O)Nc1ccc(C(F)(F)F)cc1 | inactive
C[C@H]1CN([C@@H](C)CO)C(=O)c2c(c3ccccc3n2C)-c2ccccc2CO[C@@H]1CN(C)C(=O)Nc1cccc(F)c1 | inactive
COc1ccc(NC(=O)N(C)C[C@@H]2OCCCC[C@H](C)Oc3ccc(NC(=O)Nc4ccc(C(F)(F)F)cc4)cc3C(=O)N([C@@H](C)CO)C[C@@H]2C)cc1 | inactive
COCC(=O)N1[C@@H]2CC[C@H]1COC2 | inactive
C[C@@H]1CN([C@H](C)CO)C(=O)c2cccc(NC(=O)Nc3ccc(C(F)(F)F)cc3)c2O[C@@H]1CN(C)C(=O)NC1CCCCC1 | active
O=C(C[C@H]1C=C[C@@H](NC(=O)c2cccnc2)[C@H](CO)O1)NCc1ccncn1 | inactive
C[C@@H](O)C#Cc1ccc2c(c1)O[C@@H](CN(C)C(=O)Cc1ccccn1)[C@@H](C)CN([C@@H](C)CO)S2(=O)=O | inactive
CO[C@H]1CN(C)C(=O)c2cc(NC(=O)CC(F)(F)F)ccc2OC[C@@H](C)N(S(=O)(=O)c2cn(C)cn2)C[C@@H]1C | inactive
O=C(CN1CCOCC1)N[C@@H]1CC[C@H](CCn2cc(C3CC3)nn2)O[C@@H]1CO | inactive
CC(C)(Oc1ccc(Cl)cc1)C(=O)O | inactive
CN1C(=O)c2cc(NC(=O)C3CCC3)ccc2OC[C@H]2O[C@H](CC(=O)NCCc3ccncc3)CC[C@@H]21 | inactive
C[C@H](CO)N1C[C@H](C)[C@@H](CN(C)C(=O)NC2CCCCC2)OCCCC[C@H](C)Oc2ccc(NC(=O)Cc3ccccc3)cc2C1=O | inactive
Cc1ccc(S(=O)(=O)Nc2cccc3c2O[C@@H](CN(C)CC2CC2)[C@@H](C)CN([C@@H](C)CO)C3=O)cc1 | inactive
O=C(C[C@@H]1C[C@@H]2c3cc(NC(=O)Cc4ccncc4)ccc3O[C@@H]2[C@H](CO)O1)NCc1cc(F)ccc1F | inactive
